PubChem BioAssay AID588453 (National Center for Advancing Translational Sciences (NCATS), 2011)
About 4,000 (1%) of roughly 390,000 compounds were called active. Inconclusive results, whose numbers are uncertain, are shown with a selection of clear calls. Calls follow the shape of the dose curve; as a rule, active = well fitted inhibition curve with a large enough effect; inconclusive = small, poorly fitted or top-dose-only effect; inactive = no such curve, though single readings can be large or run the other way. A potency beside an inconclusive call is a rough fit, not a confirmed value.

Target: Thioredoxin reductase 1, cytoplasmic (Rattus norvegicus) (UniProt O89049)
Chain of UniProt O89049 (O89049 whole entry, looked up): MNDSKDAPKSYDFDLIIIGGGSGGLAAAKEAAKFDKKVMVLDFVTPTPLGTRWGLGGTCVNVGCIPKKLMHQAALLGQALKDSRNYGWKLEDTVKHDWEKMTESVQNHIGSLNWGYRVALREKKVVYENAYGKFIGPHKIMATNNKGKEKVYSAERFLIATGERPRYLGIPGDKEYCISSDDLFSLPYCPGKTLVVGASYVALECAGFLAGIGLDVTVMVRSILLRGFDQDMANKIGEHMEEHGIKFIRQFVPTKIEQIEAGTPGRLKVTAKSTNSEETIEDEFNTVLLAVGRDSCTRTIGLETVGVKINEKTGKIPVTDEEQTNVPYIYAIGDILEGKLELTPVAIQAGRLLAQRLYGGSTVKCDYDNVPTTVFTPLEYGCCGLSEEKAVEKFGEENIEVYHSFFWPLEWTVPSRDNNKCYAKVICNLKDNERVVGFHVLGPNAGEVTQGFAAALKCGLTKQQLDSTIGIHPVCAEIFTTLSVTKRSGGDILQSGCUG
Experiment: qHTS Assay for Inhibitors of Mammalian Selenoprotein Thioredoxin Reductase 1 (TrxR1): qHTS; also: nearly all actives have a fitted effect of over 65% in size
Details: recombinant rTrxR1, NADPH fluorescence consumption, selenite substrate; series mostly up to 114 µM; activity change, negative = inhibition: at the top concentration
In short: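 Rat TrxR1 (90 nM in the dispensed reagent) was pre-reduced with 400 uM NADPH for 5 min at room temperature, then incubated with compound for 15 min. After 400 uM selenite was added, NADPH fluorescence (Ex 340/Em 450 nm) was followed for 8 min.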
% is scaled to controls: 0 for no effect and ±100 for the full control effect; potency is read from the fitted curve at half-maximal effect; tags tell the direction and shape of the fitted curve.

Structure (SMILES) | activity change, negative = inhibition | Potency
Cc1ccccc1-n1c(N)cc(=O)[nH]c1=S | inactive: -34.2% | 
CCOC(=O)C1=C(C)N(C[C@@H]2CC[C@@H](Cc3ccc(-c4ccccc4)cc3)O2)C(=O)NC1c1ccc(-c2ccccc2)cc1 (stereo not given in full) | inactive: 17.6% | 
Cc1cccc(-n2c(-c3ccoc3C)n[nH]c2=S)c1 |  | inconclusive: 44.7 µM [inhibitor, partial curve]
Cc1cccc(NC(=O)N2CCC(N3CCN(Cc4ccccc4)C(=O)C3=O)CC2)c1C | inactive: 4.73% [at 57.1 µM] | 
Cc1ccccc1-c1nc(C(=O)NCC2CCCO2)cc2c1[nH]c1ccccc12 (stereo not given) | inactive: 48.6% | 
O=S(=O)(c1ccc(F)c(F)c1)N1CCC2(CC1)OCCO2 |  | inconclusive: 89.1 µM [inhibitor, partial curve, poor fit]
CCOc1ccccc1C(=O)NC1CCNCC1 |  | inconclusive: 79.4 µM [inhibitor, single point]
COc1ccc(-c2oc3cccnc3c2/C=C/c2ccc(OC)c(OC)c2)cc1 |  | inconclusive: 35.5 µM [inhibitor, single point]
O=C1COc2ccc(C(=O)CCl)cc2N1 |  | inconclusive: 22.4 µM [inhibitor, full curve]
COc1cccc(C(=O)NC(=S)Nc2nnn(C)n2)c1 |  | inconclusive: 50.1 µM [inhibitor, partial curve, poor fit]
O=S(=O)(c1ccccc1)c1nnn2c1nc(NC1CCN(Cc3ccccc3)CC1)c1cc(Cl)ccc12 | inactive: 41.8% | 
CCCS(=O)(=O)c1c(S(=O)(=O)CCC)c2ccc(C(C)=O)cn2c1C(=O)OC |  | inconclusive: 25.1 µM [inhibitor, partial curve, poor fit]
CCN1C=C(Cc2cccs2)C2=C(C1)C(c1cccs1)C(C#N)=C(N)O2 (stereo not given) |  | inconclusive: 25.1 µM [inhibitor, single point]
Cc1ccc(Nc2cc(C)c(C#N)c3nc4ccccc4n23)c(C)c1 |  | inconclusive: 89.1 µM [inhibitor, single point]
CCOC(=O)Cc1csc(NC(=O)NC2(C(F)(F)F)Oc3ccccc3O2)n1 |  | active: 11.2 µM
COc1ccc(/C=C/c2sc3ccccc3[n+]2CCCCI)cc1OC |  | inconclusive: 56.2 µM [inhibitor, partial curve, poor fit]
Cc1ccc(C(=O)Nc2ccc3oc(-c4ccccc4C)nc3c2)cc1 | inactive: 22.9% | 
Cc1sc2nc(CSc3cccc(C(F)(F)F)c3)[nH]c(=O)c2c1C | inactive: 5.52% | 
Cc1cc(Br)c(S(=O)(=O)n2nnc3ccccc32)cc1C |  | inconclusive: 39.8 µM [inhibitor, single point]
Cc1cc(Cl)ccc1NC(=O)CCCn1nc(C)c2c(C)n(-c3ccccc3)nc2c1=O | inactive: 17.8% | 
COc1ccc(C(=O)Sc2nncc3ccccc23)cc1 |  | inconclusive: 35.5 µM [inhibitor, partial curve]
O=C(N/N=C/c1ccsc1)C1CC1 |  | inconclusive: 89.1 µM [inhibitor, partial curve, poor fit]
COc1cc(OC)cc(-c2nnc(NC(=O)CCS(=O)(=O)c3ccc(F)cc3)o2)c1 |  | inconclusive: 89.1 µM [inhibitor, partial curve, poor fit]

Structure (SMILES) | activity change, negative = inhibition | Potency
CC(NC(=O)COC(=O)C1CCN(c2ccc(C(F)(F)F)cn2)CC1)c1ccc(F)cc1 (stereo not given) | inactive: 21.9% | 
COc1ccccc1/C=C1/C(=O)ON=C1C |  | inconclusive: 89.1 µM [inhibitor, partial curve, poor fit]
COC(=O)c1ccc(Cn2c(CN3CCOCC3)nc3ccccc3c2=O)o1 |  | inconclusive: 50.1 µM [inhibitor, partial curve]
CCCN1C(=O)/C(=C/c2cc(C)n(C)c2C)SC1=Nc1ccc(OCC)cc1 |  | inconclusive: 25.1 µM [inhibitor, partial curve, poor fit]
c1ccc(CN2CCN(CCOCCOc3cccc4ccccc34)CC2)cc1 | inactive: 22.9% [at 57.1 µM] | 
CC(=O)C1=C(S(=O)(=O)c2ccc(C)cc2)CS(=O)(=O)C1 |  | active: 1.26 µM
COc1ccc(C=O)cc1OS(=O)(=O)c1ccccc1[N+](=O)[O-] |  | inconclusive: 39.8 µM [inhibitor, partial curve]
COc1ccccc1N1CCN(C(=S)NC(=O)/C=C/c2ccccc2)CC1 | inactive: 3.81% [at 57.1 µM] | 
Cn1cccc1/C=N/n1c(-c2ccc(Cl)cc2Cl)n[nH]c1=S |  | inconclusive: 2.24 µM [inhibitor, partial curve, poor fit]
Cc1ccc(-c2cc(C(=O)N/N=C/c3ccccc3O)n[nH]2)o1 | inactive: -3.83% | 
COc1ccc(/C=C/C(=O)OCC(=O)NC2CCCCCC2)cc1OC |  | inconclusive: 79.4 µM [inhibitor, single point]
COc1ccc(CN2CCNC(=O)C2CC(=O)NCC2CCOCC2)cc1C (stereo not given) |  | inconclusive: 70.8 µM [inhibitor, partial curve]
COc1cccc(-c2nc(SCC(=O)Nc3ccc4c(c3)OCCO4)c(-c3ccc(C)cc3)[nH]2)c1 | inactive: -10.6% | 
O=C(CN1C(=O)/C(=C2\SC(=S)N(CCS(=O)(=O)O)C2=O)c2ccccc21)Nc1cccc(Br)c1 |  | inconclusive: 89.1 µM [inhibitor, partial curve, poor fit]
COc1ccc(-c2nn(-c3ccccc3)cc2C(=O)O)cc1 | inactive: 21.9% | 
CCOc1cc(/C=C2\N=C(SCC)SC2=O)cc([N+](=O)[O-])c1OC(C)=O |  | inconclusive: 15.8 µM [inhibitor, partial curve]
CCSc1nnc(NC(=O)/C=C/c2ccco2)s1 |  | inconclusive: 50.1 µM [inhibitor, partial curve]
CCc1ccccc1NC(=O)Cn1nc(N2CCN(c3ccccc3OC)CC2)ccc1=O | inactive: 7.6% [at 57.1 µM] | 
O=C1CC(NCCN2CCOCC2)C(=O)N1Cc1ccc(N2CCCC2=O)cc1 (stereo not given) |  | inconclusive: 39.8 µM [inhibitor, single point]
Cc1ccc(S/C=C\C(=O)c2ccccc2)cc1 |  | inconclusive: 3.55 µM [inhibitor, full curve]
COCCNCC#CCOc1ccc(OC)cc1 |  | inconclusive: 22.4 µM [inhibitor, single point]
CSc1cccc(NS(=O)(=O)c2ccc3c(c2)oc(=O)n3C)c1 | inactive: 10.8% [at 57.1 µM] | 
